Results reported in patent US7256286B2, “Bryostatin analogues, synthetic methods and uses” (The Board of Trustees of the Leland Stanford Junior …, priority 1999, dated 2007).

Tested on: NCI-H322M
Experiment: cells
From the text: Another useful method for assessing anticancer activities of compounds of the invention involves the multiple-human cancer cell line screening assays run by the National Cancer Institute (e.g., Boyd, 1989). This screening panel, which involves approximately 60 different human cancer cell lines, is a useful indicator of in vivo antitumor activity for a broad variety of tumor types (Grever et al., 1992, Monks et al., 1991), such as leukemia, non-small cell lung, colon, central nervous system (CNS), melanoma, ovarian, renal, prostate, and breast cancers. Antitumor activities can be expressed in terms of ED50 (or GI50), where ED50 is the molar concentration of compound effective to reduce cell growth by 50%. Compounds with lower ED50 values tend to have greater anticancer activities than compounds with higher ED50 values. Example 7 describes a P388 murine lymphocytic leukemia cell assay which measures the ability of compounds of the invention to inhibit cellular growth.
Anticancer data were obtained in vitro for C26 desmethyl bryostatin analogue 702.1 (Example 3A) tested against a spectrum of different NCI human cancer cell-lines associated with various cancer conditions. Data obtained with Bryostatin-1 are included for comparison. Growth inhibition (GI50) values are expressed as the log of molar concentration at half-maximum inhibition.

Compound	Growth inhibition (GI50) (NCI-H322M, NSC Lung)	Difference (GI50 desmethyl vs Bryo-1)	GI50 (Homo sapiens, NCI-H322M, read-out: Growth inhibition (GI50) (converted)) [µM]
CCC/C=C/C=C/C(=O)O[C@H]1/C(=C/C(=O)OC)C[C@H]2C[C@H]([C@@H](C)O)OC(=O)C[C@H](O)C[C@@H]3C[C@H](OC(C)=O)C(C)(C)[C@](O)(C[C@@H]4C/C(=C/C(=O)OC)C[C@H](/C=C/C(C)(C)[C@]1(O)O2)O4)O3 [Bryo-1, reference compound]	−6.00 log of molar concentration	–	–
CCCCCCCC(=O)O[C@H]1/C(=C/C(=O)OC)C[C@H]2C[C@H](CO)OC(=O)C[C@H](O)C[C@@H]3CCCC(CC4CCO[C@H](/C=C/C(C)(C)[C@]1(O)O2)O4)O3 [Formula IIa (702.1)]	–	1.62	41.7
